Assay results published in PubChem BioAssay AID1963576 (National Center for Advancing Translational Sciences (NCATS), 2024).
Among all 46,000 compounds or so, about 60 (0.1%) were called active. Roughly 3% stayed inconclusive and do not appear here. Calls follow the shape of the dose curve; as a rule, active = well fitted inhibition curve with a large enough effect; inconclusive = small, poorly fitted or top-dose-only effect; inactive = no such curve, though single readings can be large or run the other way. This is one part of the list.

Assay: Primary qHTS assay for Inhibitors of ovarian cancer metastasis using an organotypic tumor microenvironment (TME) model. Also: nearly all actives have a fitted effect of over 65% in size.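 As to activity change, negative = inhibition: plate controls were DMSO wells for no effect and tomatine positive control wells for full effect.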
Details: SKOV3ip1-GFP adhesion/invasion on 3D omental model, fluorescence; series mostly up to 45.8 µM; activity change, negative = inhibition: at the top concentration
Method in brief: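 A 3D layer of primary human omental fibroblasts, mesothelial cells, fibronectin and collagen I, grown 48 hr, received SKOV3ip1-GFP cells in serum-free medium plus compounds at 0.36-46 umol/L. After 2 hr RT and 16 hr 37 C, fixed adherent GFP cells were counted; normalized to DMSO and tomatine.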

Activity change, negative = inhibition, inactive:
CSc1ccc(CCNC(=O)C(C)n2c(C)c3cnn(-c4ccccc4)c(=O)c3c2C)cc1 (stereo not drawn) 41%
COc1cc(NC(=O)Cn2c(C)cc3ccccc3c2=O)cc(OC)c1OC -3.26%
CCc1ccc(CNC(=O)CCN2C(=O)COc3ccccc32)cc1 5.68%
Cc1nc(-c2ccc(F)cc2)sc1CCNC(=O)c1ccco1 -8.5%
CC(=O)Nc1cc(C(=O)NCc2ccc(F)cc2Cl)ccc1Sc1ccc(Cl)cc1 -4.36%
Cc1ccc(/C=C/c2onc(C)c2S(=O)(=O)N2CCC(C(=O)N3CCOc4ccccc43)CC2)cc1 -6.67%
O=C(Cn1c(=O)n(Cc2ccccc2)c(=O)c2oc3ccccc3c21)Nc1ccc(Cl)cc1 -10.9%
COC(=O)c1cc2oc(C)cc2n1CC(=O)Nc1ccc(C)cc1C 6.41%
COc1ccccc1N(Cc1cc2cccc(C)c2[nH]c1=O)C(=O)c1cccc(Cl)c1 -21.8%
COc1ccc(CNC(=O)CCCc2cn(C)c3ccccc23)c(OC)c1 0.445%
Oc1ccc(Cl)cc1Nc1nc2ccccc2n2cnnc12 1.16%
O=C(CCS(=O)(=O)c1ccc2c(c1)NC(=O)CO2)Nc1cccc(C(F)(F)F)c1 34.9%
CCNC(=O)CC1C(=O)N(c2ccc(C)cc2)C(=O)N1Cc1ccc(C)cc1 (stereo not drawn) -13.8%
COc1ccc(CCn2c3c(c(=O)[nH]c2=O)C(NC(=O)c2ccccc2)(C(F)(F)F)C(=O)N3)cc1OC (stereo not drawn) 4.04%
NC(=O)c1cc(S(=O)(=O)N2CCCCC2)cs1 -8.43%
CCOc1ccc(N(C(=O)c2ccc(C)cc2)S(=O)(=O)c2ccc3c(c2)n(C)c(=O)n3C)cc1 1.75%
Cc1ccc2nc(-c3ccc(C)c(NC(=O)CSc4ccc(Cl)cc4)c3)oc2c1 0.951%
CCC(=C(c1ccccc1)c1ccc(OCCN(C)C)cc1)c1ccccc1 2.94%
CCn1cc(S(=O)(=O)c2cc(C)cc(C)c2)c(=O)c2cc(F)c(N3CCC(C)CC3)cc21 -8.75%
CCN(CC)C(=O)Cn1c(=O)n(CCCCCC(=O)NCc2ccccc2Cl)c(=O)c2sccc21 -2.76%
O=C(NCc1ccc(Cl)cc1)c1cc2ccccc2o1 -11.9%
Cc1ccc(Cl)cc1N1CCN(C(=O)Cn2cnc3nc4c(cc3c2=O)CCCC4)CC1 8.08%
Cc1ccc(C(=O)Nc2nc3n(n2)C(c2ccccc2)C=C(c2ccccc2)N3)cc1 (stereo not drawn) 20.4%
Cc1ccc(NC(=O)CCNS(=O)(=O)c2cccc3nsnc23)cc1 -0.766%
NC(=O)OCC(COC(N)=O)c1ccccc1 8.37%
CC1CCc2onc(C(=O)N3CCN(c4cccc(C(F)(F)F)c4)CC3)c2C1 (stereo not drawn) -3.02%
CCOc1ccc(-c2nc(SCC(=O)Nc3ccc4c(c3)OCCO4)c(-c3ccc(F)cc3)[nH]2)cc1 2.48%
CCOc1ccc(-c2nonc2NC(=O)c2ccc(C)cc2)cc1OCC -2.45%
CCC(=O)N1CCc2cc(Br)cc(S(=O)(=O)CCC(=O)NCCc3ccccc3Cl)c21 2.73%
CN1CCN(C(c2cccc(Br)c2)c2sc3nc(-c4ccco4)nn3c2O)CC1 (stereo not drawn) 2.13%
COc1cccc(OC)c1C(=O)Nc1cccc(-c2nc3cc(C)cc(C)c3o2)c1 -15.2%
O=C(CC12CC3CC(CC(C3)C1)C2)Nc1cccc2nc(NCCNCCO)ccc12 16.5%
COc1ccc(NC(=O)c2noc3c2CSc2ccccc2-3)cc1Cl -22.7%
CCc1cccc(-n2nnc(-c3nc(-c4cccs4)no3)c2N)c1 -2.46%
CC(=O)N1CCCc2cc(S(=O)(=O)N3CCN(c4ccc(F)cc4)CC3)ccc21 -5.17%
CN[C@H]1CCc2cc(OC)c(OC)c(OC)c2-c2ccc(OC)c(=O)cc21 0.91%
COc1ccc(S(=O)(=O)N(C)Cc2nc(-c3cccc(C)c3)no2)cc1 1.01%
CCc1ccc(NC(=O)N(Cc2ccc(C)cc2)Cc2cccn2-c2nnc(N3CCCC3=O)s2)cc1 -12.4%
COc1cccc(CNC(=O)C(NS(=O)(=O)c2ccc3nc(C)sc3c2)C(C)C)c1 (stereo not drawn) 9.23%
Cc1ccc(NC(=O)C2CCCN(c3nnc(-n4c(C)ccc4C)s3)C2)cc1Cl (stereo not drawn) -6.9%
Cc1ccc(NC(=O)N2CCC(CN3CCC(C)CC3)CC2)cc1F 1.19%
CCCc1cc(=O)n2[nH]c(-c3ccc(C)cc3)nc2n1 -4.83%
CCOC(=O)c1ccc(NC(=O)c2cc(=O)c3cc(CC)ccc3o2)cc1 -3.88%
CCCCc1ccc(NC(=O)COc2cccc3c(=O)n(C)ccc23)cc1 -3.3%
Cc1ccccc1CN1c2ccccc2-c2nc(SCC(=O)NCCc3ccccc3)ncc2S1(=O)=O -7.54%
CCS(=O)(=O)NCC(c1ccco1)N1CCN(c2ccc(OC)cc2)CC1 (stereo not drawn) -0.137%
Cc1ccc(C(CC(=O)Nc2cc(C)cc(C)c2)N2Cc3ccccc3C2=O)cc1 (stereo not drawn) -1.91%
Cc1nc2ccc(S(=O)(=O)NC(C(=O)NCc3ccccc3Cl)C(C)C)cc2s1 (stereo not drawn) 9.23%
CC1CCN(S(=O)(=O)c2ccc3c(c2)N(CC(=O)NCc2ccccc2Cl)C(=O)CS3)CC1 -3.13%
NC(=O)CSc1nc2ccc(NC(=O)COc3ccccc3)cc2s1 -6.93%
COc1ccc(OC)c(CNS(=O)(=O)c2c(C(=O)N3CCC(C)CC3)c(C)n(C)c2C)c1 2.61%
Cc1ccc2c(CC(=O)N3CCN(c4cccc(Cl)c4)CC3)coc2c1 -23.8%
O=C(Nc1cccc(C(F)(F)F)c1)C1CCCN(S(=O)(=O)c2cccc3nsnc23)C1 (stereo not drawn) -16.6%
CCCCNc1ccc(-c2nc(-c3ccccc3)no2)cc1[N+](=O)[O-] -6.48%
CCOc1ccccc1NC(=O)CSc1c(C)cnc2c1c(=O)n(C)c(=O)n2C -23.3%
COc1cc(Nc2nc(SCc3ccccc3F)nc3ccccc23)cc(OC)c1 -3.88%
CCOc1ccc(C(=O)NCCc2sc(-c3ccc(C)cc3)nc2C)cc1 0.658%
COc1ccccc1N1CCN(CCCNC(=O)c2cnn(-c3ccccc3Cl)c2C2CCN(C(=O)OC(C)(C)C)CC2)CC1 -5.22%
CC(C)CCN1C(=O)N(c2ccccc2)C(=O)C1CC(=O)Nc1ccc(Cl)cc1 (stereo not drawn) 2.05%
CCOCCCNC(=O)C(c1ccc(OC)cc1)N(Cc1cccs1)C(=O)c1ccccc1O (stereo not drawn) 1.06%
CC1=C(C(=O)Nc2cccc(C)c2C)C2(CCCCC2)OC1=O 12.5%
COc1ccc(-c2cc3c(=O)n(CC(=O)Nc4ccccc4C(F)(F)F)ccn3n2)cc1OC -8.6%
CCOc1cccc2sc(N(Cc3cccnc3)C(=O)c3ccco3)nc12 8.33%
COc1cc(OC)c(NC(=O)Nc2nnc(N(C)C3CCCCC3)s2)cc1Cl -8.27%
COc1ccc(C(c2c(C)n(C)n(-c3ccccc3)c2=O)c2c(C)n(C)n(-c3ccccc3)c2=O)cc1O 20.2%

outcome, inactive:
COc1cc(OC)cc(C(=O)Nc2c(C(=O)Nc3ccc(F)cc3)oc3ccccc23)c1
COc1ccc(NC(=O)Cn2nnc(C(=O)NCc3ccccc3Cl)c2N)cc1Cl
O=C(NCc1cccc(Br)c1)c1cccn1-c1nnc(N2CCCCC2)s1
COc1ccc(OC)c(NC(=O)c2ccc3c(c2)c(C)c(C)n3Cc2ccc(F)cc2)c1
Cc1ccc(C)n1-c1nnc(N2CCCC(C(=O)NCc3ccc(F)cc3)C2)s1 (stereo not drawn)
Cc1ccc2cccc(NC(=O)c3ccc(-c4cc(Cl)ccc4Cl)o3)c2n1
Cc1cc(C)c(/C=C/c2onc(C)c2S(=O)(=O)N2CCC(C(=O)N3CCN(c4ccc(Cl)cc4)CC3)CC2)c(C)c1
Cc1ccc(NC(=O)Cn2c(C)cc(C)c(C#N)c2=O)cc1F
CN(CC(=O)Nc1ccc(F)cc1F)S(=O)(=O)c1ccc(C(=O)N2CCOCC2)s1
COc1ccc(-c2nc3ccccc3s2)cc1NC(=O)c1cc2ccccc2o1
O=C(Cc1csc2ccccc12)NCc1ccccc1F
O=C(Cn1nc(Cc2cccnc2)c2ccccc2c1=O)Nc1cccc(C(F)(F)F)c1
Clc1ccc2nc(-c3ccc(Br)o3)c(Nc3ccc4c(c3)OCCO4)n2c1
CCC(=O)OCCCNc1nc(-c2ccc(Cl)cc2)nc2ccccc12
CCc1ccc(NC(=O)CN2C(=O)C(c3ccccc3)=NC23CCCCCC3)cc1
COc1ccc(-c2cc(C(F)(F)F)nc(SCC(=O)NCCc3ccc(OC)c(OC)c3)n2)cc1
CCOC(=O)c1c(C)c(-c2ccccc2)n(CC(=O)NCCc2ccc(C)cc2)c1C
Cc1ccc2nc(CSc3nnc(NC(=O)COc4ccccc4)s3)cc(=O)n2c1
CCN(CC)c1ccc(-n2nc3cc(C)c(NC(=O)c4ccccc4F)cc3n2)cc1
Cc1cccc(NC(=O)CSc2nnc(C)c(=O)[nH]2)c1
Cc1cccc(NC(c2cccc(F)c2)c2ccc3ccc(C)nc3c2O)n1 (stereo not drawn)
c1ccc(-c2cc(-c3ccccc3)c3c(n2)-c2ccccc2OC3)cc1
CC1CCC(NC(=O)c2ccc3c(c2)N(Cc2ccccc2F)C(=O)c2ccccc2S3)CC1 (stereo not drawn)
CCCn1c(=N)c(C(=O)NC2CCCC2)cc2c(=O)n3cc(C)ccc3nc21
Cc1cc(C)cc(NC(=O)Cn2nnc(C(=O)NCCc3ccccc3)c2N)c1
CSc1ncc(Cl)c(C(=O)NCc2ccc(C)cc2)n1
COc1ccc(C2C(=O)N(C3CCC(C)CC3)CC(=O)N2Cc2ccc(C)cc2)cc1OC (stereo not drawn)
Cc1ccc(CCNC(=O)c2ccc(CS(=O)(=O)c3ccc(Br)cc3)o2)cc1
Cc1ccc(Sc2ccc(N3CCCC(C(=O)Nc4ccc(Cl)cc4)C3)nn2)cc1 (stereo not drawn)
CC(C)NC(=O)CSc1nc2ccccc2nc1N1CCCCC1
COc1ccc(CCNC(=O)c2cnc3sc(N4CCCCCC4)nn3c2=O)cc1OC
CC1=C(C(=O)Nc2c(C)cc(C)cc2C)C2(CCN(C(C)C)CC2)OC1=O
Cc1ccc(N2CC(NC(=O)Cc3cccs3)CC2=O)cc1 (stereo not drawn)
